Measurements: patent US20260234211A1, “POLYPEPTIDE HAVING MODIFIED STRUCTURE AND USE THEREOF” (Guangdong Raynovent Biotech Co., Ltd., priority 2023, published 2026)
At least one compound was matched to its structure with a doubt left.

Test system: DIO obesity mouse model
Test: Pharmacodynamics in DIO obesity mouse model
Format: in vivo
Conditions: DIO mice, 10 nmol/kg, second experiment with similar protocol
Text: Experimental purpose: To evaluate the effects of multiple administration of the test substance (compound) on body weight and glucolipid metabolism.
In this experiment, mice were used as test animals, which were induced with a high-fat diet (Research Diets: D12492) from 4-5 weeks old for 8 weeks, and the animals were grouped according to their body weights and fasting blood glucose levels, with the average body weight of the model animals being 47.2±0.3 g, the average body weight of the control animals being 27.9±0.3 g, the average fasting blood glucose of the model animals being 8.8±0.2 mmol/L, and the average fasting blood glucose of the control animals being 6.0±0.2 mmol/L. There were six animals in each group. The animals were administered immediately after grouping and were administered by subcutaneous injection every 3 days for 22 consecutive days. Both the normal control and model groups were given with vehicle (20 mM citrate buffer). Body weight and food intake were measured twice a week. Fasting blood glucose was tested on Days 10 and 20, OGTT test was performed on Day 20, and blood was collected on Day 23 to test the liver function indicators (ALT, AST, ALP) and serum lipid metabolism indicators (TC, TG, HDL, LDL). Liver tissues were taken to calculate organ indexes, and liver lipid metabolism indicators (hepatic TC, TG) were detected. The liver tissues were examined pathologically (HE, Oil Red) to evaluate the effects of the test substances on body weight and glucolipid metabolism in a high-fat diet-induced obesity mouse model.
The experimental data of each group of animals was described as mean±standard error (X±SEM). P<0.05 indicated the statistically significant difference. All statistical analysis was completed using Graphpad 8.0 software.

CC[C@H](C)[C@H](NC(=O)[C@H](Cc1ccccc1)NC(=O)[C@H](C)NC(=O)C(C)(C)NC(=O)[C@H](CCC(N)=O)NC(=O)[C@H](C)NC(=O)[C@@H]1CCCCNC(=O)CN(C(=O)COCCOCCNC(=O)CC[C@H](NC(=O)CCCCCCCCCCCCCCCCCCC(=O)O)C(=O)O)CC(=O)NCCCC[C@H](NC(=O)[C@](C)(CC(C)C)NC(=O)[C@@H](NC(=O)[C@H](CO)NC(=O)[C@H](Cc2ccc(O)cc2)NC(=O)[C@H](CC(=O)O)NC(=O)[C@H](CO)NC(=O)[C@@H](NC(=O)[C@H](Cc2ccccc2)NC(=O)[C@@H](NC(=O)CNC(=O)[C@H](CCC(N)=O)NC(=O)C(C)(C)NC(=O)[C@@H](N)Cc2ccc(O)cc2)[C@@H](C)O)[C@@H](C)O)[C@@H](C)CC)C(=O)N[C@@H](CC(=O)O)C(=O)N[C@@H](CCCCN)C(=O)N1)C(=O)N[C@@H](CCC(=O)O)C(=O)N[C@@H](Cc1ccc(O)cc1)C(=O)N[C@@H](CC(C)C)C(=O)N[C@@H](CC(C)C)C(=O)N[C@@H](CCCCN)C(=O)NCC(=O)NCC(=O)N1CCC[C@H]1C(=O)N[C@@H](CO)C(=O)N[C@@H](CO)C(=O)NCC(=O)N[C@@H](C)C(=O)N1CCC[C@H]1C(=O)N1CCC[C@H]1C(=O)N1CCC[C@H]1C(=O)N[C@@H](CO)C(N)=O [Example 38, YAibQGT FTSDY SIα- MeL^1KD K^1KAQAib AFIEY LLKGG PSSGA PPPS-NH2 (SEQ ID NO: 38)]
Change rate of body weight on Day 22: −29.87 ± 1.30%

CC[C@H](C)[C@H](NC(=O)[C@H](Cc1ccccc1)NC(=O)[C@H](C)NC(=O)C(C)(C)NC(=O)[C@H](CCC(N)=O)NC(=O)[C@H](C)NC(=O)[C@@H]1CCCCNC(=O)CN(C(=O)COCCOCCNC(=O)[C@@H](N)CCCCNC(=O)CC[C@H](NC(=O)CCCCCCCCCCCCCCCCCCC(=O)O)C(=O)O)CC(=O)NCCCC[C@H](NC(=O)[C@](C)(CC(C)C)NC(=O)[C@@H](NC(=O)[C@H](CO)NC(=O)[C@H](Cc2ccc(O)cc2)NC(=O)[C@H](CC(=O)O)NC(=O)[C@H](CO)NC(=O)[C@@H](NC(=O)[C@H](Cc2ccccc2)NC(=O)[C@@H](NC(=O)CNC(=O)[C@H](CCC(N)=O)NC(=O)C(C)(C)NC(=O)[C@@H](N)Cc2ccc(O)cc2)[C@@H](C)O)[C@@H](C)O)[C@@H](C)CC)C(=O)N[C@@H](CC(=O)O)C(=O)N[C@@H](CCCCN)C(=O)N1)C(=O)N[C@@H](CCC(=O)O)C(=O)N[C@@H](Cc1ccc(O)cc1)C(=O)N[C@@H](CC(C)C)C(=O)N[C@@H](CC(C)C)C(=O)N[C@@H](CCC(=O)O)C(=O)NCC(=O)NCC(=O)N1CCC[C@H]1C(=O)N[C@@H](CO)C(=O)N[C@@H](CO)C(=O)NCC(=O)N[C@@H](C)C(=O)N1CCC[C@H]1C(=O)N1CCC[C@H]1C(=O)N1CCC[C@H]1C(=O)N[C@@H](CO)C(N)=O [Example 52, YAibQGT FTSDY SIα- MeL^1KD K^1KAQAib AFIEY LLEGG PSSGA PPPS-NH2 (SEQ ID NO: 24)]
Change rate of body weight on Day 22: −30.26 ± 2.80%
